# Measured values published in PubChem BioAssay AID1347073 (National Center for Advancing Translational Sciences (NCATS), 2019).
# About 200 (0.44%) of roughly 45,000 compounds were called active. Inconclusive results (about 7%) are left out. Calls follow the shape of the dose curve; as a rule, active = well fitted activation curve with a large enough effect; inconclusive = small, poorly fitted or top-dose-only effect; inactive = no such curve, though single readings can be large or run the other way. This is one part of the list.
# Assay: qHTS of TDP-43 Inhibitors: NCGC Sytravon Library Screen; also: 0% is about no effect; nearly all actives have a fitted effect of over 55% in size
# Conditions: yeast TDP-43 toxicity rescue, BacTiter-Glo growth, 24 h; series mostly up to 46.1 µM; growth rescue (activation): at the top concentration
# Summary of the method: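 TDP-43-expressing yeast, pregrown in raffinose, seeded at OD600 0.02 in galactose medium with compound for 24 hr at 30 deg C. Growth read by BacTiter-Glo luminescence, so rescue of toxicity appears as activation.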
row,Structure (SMILES),growth rescue (activation)
1,COc1cccc(CC(=O)Nc2ncc(C)s2)c1,inactive: 10.9%
2,CC(O)(c1cccc(F)c1)c1nc(-c2cccc(F)c2)cs1 (configuration not stated),inactive: -57.8%
3,Cc1cccc2nc(COc3ccc4ccccc4c3Br)cn12,inactive: 1.45%
4,C=CCN(c1ccc(C(=O)Nc2ccc(C)cc2)cc1)S(C)(=O)=O,inactive: 4.2%
5,Cc1cc(N2CCN(Cc3nc(-c4ccc(Cl)cc4)oc3C)CC2)cc(C)n1,inactive: -15.2%
6,Cc1cccc(NC(=O)C2CCN(c3nnc(-n4c(C)ccc4C)s3)CC2)c1C,inactive: 1.22%
7,COc1ccc(NC(=O)CCNS(=O)(=O)c2cccc3nsnc23)cc1,inactive: -2.36%
8,CC(C)Nc1nc(NCCOc2ccccc2Cl)c2sccc2n1,inactive: 11.4%
9,COc1cccc2c1CCc1c-2nc2ccccc2c1C(=O)O,inactive: -2.54%
10,C=CCOc1ccc(CN(C)CC(=O)Nc2ccc3c(c2)CCC3)cc1,inactive: 8.61%
11,COc1ccc(CNC(=O)/C(C#N)=C2\N=C(NC(=O)c3cccs3)c3ccccc32)cc1,inactive: 15.3%
12,Cc1ccc(N2CC(C(=O)N3CCC(C(=O)Nc4nnc(C(C)(C)C)s4)CC3)CC2=O)cc1 (configuration not stated),inactive: 10.5%
13,CC[N+](C)(CC)CC(=O)OCC1C(C)C=C(C)CC1C (configuration not stated),inactive: 1.26%
14,Cn1cc(CNC(=O)CC2C(=O)NCCN2CC(C)(C)C)cn1 (configuration not stated),inactive: 6.09%
15,COCCCn1c(=O)/c(=C\c2ccccc2OC(C)C)s/c1=C(/C#N)C(=O)Nc1ccc(C(=O)O)cc1,inactive: -4.17%
16,Cc1nnc(SC(C(=O)c2ccccc2)c2ccccc2)[nH]c1=O (configuration not stated),inactive: 35.4%
17,CC1CCc2c(sc3[nH]c(=S)n(C)c(=O)c23)C1 (configuration not stated),inactive: 15.9%
18,COc1ccccc1C(=O)Nc1ccccc1N1CCCCC1,inactive: 13.3%
19,OCCN1CCN(c2ncnc3c2ncn3[C@H]2CN(Cc3ccc(Cl)cc3)C[C@@H](CO)O2)CC1,inactive: 16.7%
20,CCOC(=O)CN1C(=O)CSc2ccc(S(=O)(=O)N3CCCC3)cc21,inactive: 14.4%
21,O=S(=O)(c1ccc(Cl)nc1)N1CCCCC1,inactive: 1.38%
22,CC(NC(=O)c1ccc(Br)cc1)C(=O)NC1=NCCS1 (configuration not stated),inactive: -3.86%

row,Structure (SMILES),growth rescue (activation)
1,COCC(=O)N(Cc1cc2ccc(C)c(C)c2n2nnnc12)C1CCCC1,inactive: 6.38%
2,CSc1cccc(NCc2ccc([N+](=O)[O-])cc2)c1,inactive: 2.38%
3,CCOC(=O)c1cc(OC)c2cccc(CN3CCCC(C)(C(=O)NCCOC)C3)c2c1 (configuration not stated),inactive: 5.57%
4,Cc1ccc(NC(=O)COc2cccc(-n3cnnn3)c2)cc1[N+](=O)[O-],inactive: 10%
5,CN(C)C(CNc1ncnc2sccc12)c1ccccc1 (configuration not stated),inactive: -4.35%
6,Cc1nc2ccccc2nc(C)c1=NOCc1ccccc1Cl,inactive: -22%
7,Cc1cccc(NC(=O)Nc2nnc([C@H]3C[C@H](O)[C@@H](CO)O3)s2)c1,inactive: 4.76%
8,COc1ccccc1NC(=O)N1CCC(C(=O)c2ccc(Cl)cc2)CC1,inactive: 22.4%
9,OC[C@@H]1CN(Cc2ccc(F)cc2)C[C@H](n2cnc3c(NCc4ccncc4)ncnc32)O1,inactive: -3.3%
10,CN(C)/C=N/c1sc2c(c1C#N)CCCC2,inactive: 14.1%
11,O=c1cnnc(N/N=C/C2CC=CCC2)[nH]1 (configuration not stated),inactive: -0.11%
12,COc1ccc(Nc2nc(NCCCN3CCOCC3)nc(N)c2[N+](=O)[O-])cc1,inactive: 3.7%
13,CCOc1ccc(Nc2nc(N)c3ccccc3n2)cc1,inactive: -80.4%
14,O=C(COC(=O)c1cccnc1Cl)Nc1cccc(S(=O)(=O)N2CCCCC2)c1,inactive: 14.8%
15,CC(=O)N1CCCN(Cc2cn(-c3cc(C)ccc3C)nc2-c2ccccc2)CC1,inactive: -0.093%
16,COC(=O)c1cc(Br)c(=O)n(CC(C)C)c1,inactive: -2.05%
17,CCOC(=O)CNc1cccc(C(F)(F)F)c1,inactive: 12.3%
18,CSc1c(CC(=O)Nc2ccc(F)cc2)n(Cc2ccccc2)c2ccccc12,inactive: 11.3%
19,COc1ccc(CCN2C(=O)CC(Cc3cccc(C)c3)C2=O)cc1OC (configuration not stated),inactive: 12.6%
20,Cc1cc(/C=N/NC(N)=S)c(O)c(/C=N/NC(N)=S)c1,inactive: 5.35%
21,CCN(CC)S(=O)(=O)c1ccc(NS(=O)(=O)CC23CCC(CC2=O)C3(C)C)cc1 (configuration not stated),inactive: 3.61%
22,CCc1nnc(NC(=O)c2ccc(COc3ccccc3Cl)o2)s1,inactive: 14.1%

row,Structure (SMILES),growth rescue (activation)
1,CC(C)(C)c1ccccc1NC(=O)Cn1c(=O)cnc2ccccc21,inactive: 2.49%
2,COc1ccccc1-n1nnnc1SCC(=O)NCC1(N2CCCCC2)CCCCC1,inactive: -6.73%
3,CN=C1SC(CC(=O)NCCc2ccc(OC)c(OC)c2)C(=O)N1C (configuration not stated),inactive: 9.41%
4,CC1=NN(c2ccc(Cl)c(C(=O)O)c2)C(=O)/C1=C/c1ccc(-c2ccccc2[N+](=O)[O-])o1,inactive: -8.17%
5,O=C(CNC(=O)COc1ccccc1)NCc1ccccc1F,inactive: -4.64%
6,CC(N=C1CC(C)(C)CC(=O)/C1=C(/O)CCCN1C(=O)c2ccccc2C1=O)C(=O)O (configuration not stated),inactive: 9.48%
7,COCCCN(C(=S)Nc1c(C)cc(C)cc1C)C(C)c1ccccn1 (configuration not stated),inactive: -2.52%
8,OC[C@@H]1CN(Cc2ccccc2)C[C@H](n2cnc3c(N4CCN(c5ccccc5)CC4)ncnc32)O1,inactive: 6.92%
9,O=C(CN1CCN(c2ccc(Cl)cc2)CC1)NCc1ccccc1,inactive: 4.8%
10,COc1ccc(CNC(=O)CSc2cccc3cccnc23)cc1,inactive: 13.6%
11,CCOC(=O)c1oc2c(c1C)-c1nn(Cc3ccc(Cl)cc3)cc1CC2,inactive: 21.2%
12,Cc1ccc2[nH]c(O)c(N=Nc3ccccc3C)c2c1,inactive: 4.06%
13,Cc1ccnn1C(C)C(=O)O (configuration not stated),inactive: 0.891%
14,O=C(NC(=S)Nc1ccccc1Br)c1ccco1,inactive: -2.55%
15,Cc1ccc(N2CC(C(=O)Nc3cc(C)on3)CC2=O)c(C)c1 (configuration not stated),inactive: 6.06%
16,CCc1cc2cc(C)cc(C)c2nc1SCC(=O)Nc1cc(C)on1,inactive: -3.44%
17,COc1ccc(CNC(=O)C(C)OC(=O)C23CC4CC(CC(O)(C4)C2)C3)cc1 (configuration not stated),inactive: 1.52%
18,O=C(CSc1nncc2ccccc12)Nc1cccc(O)c1,inactive: -37.7%
19,CC(=O)Nc1nnc(CSCc2ccccc2F)s1,inactive: -23%
20,CCCCCn1c(=O)[nH]c2cc(C(=O)N3CCN(c4ccccc4F)CC3)ccc2c1=O,inactive: -7.83%
21,CCOc1ccc(CN(C)C(C)C(=O)Nc2ccc([N+](=O)[O-])cc2Cl)cc1OC (configuration not stated),inactive: 13.8%
22,CC(C)c1ccccc1NC(=S)NCc1ccncc1,inactive: 7.78%

row,Structure (SMILES),growth rescue (activation)
1,Cc1ccc(CSc2nnc(-c3cccc(S(=O)(=O)N4CCOCC4)c3)n2C2CCCC2)cc1,inactive: 12.1%
2,O=C(COC(=O)Cc1ccc(Cl)cc1)Nc1cc(S(=O)(=O)N2CCOCC2)ccc1N1CCCC1,inactive: 0.0332%
3,Cc1ccc(Cl)cc1N1CCN(C(=O)COc2ccc3c(c2)CCC3)CC1,inactive: 19.3%
4,CCOC(=O)c1c(OCCO)noc1N,inactive: 3.72%
5,NS(=O)(=O)c1cccc(NC(=O)CCCNC(=O)c2ccc(Cl)cc2)c1,inactive: -20.8%
6,CCCc1nc2nc(C)c(NS(=O)(=O)c3ccc([N+](=O)[O-])cc3)c(=O)n2[nH]1,inactive: -8.92%
7,C=CCOc1ccc(CNn2nnnc2N)cc1,inactive: 30.8%
8,O=C(O)COc1ccc(Br)cc1CP(=O)(c1ccccc1)c1ccccc1,inactive: 23.1%
9,CN(CC(=O)Nc1ccc(F)c(F)c1F)c1ncnc2sccc12,inactive: 16.7%
10,C/C(=N\N1C(=O)c2ccccc2NC1c1ccco1)c1ccccc1O (configuration not stated),inactive: 12.5%
11,CC(C(=O)Nc1ccc(F)c(F)c1F)N1CCCCCC1 (configuration not stated),inactive: 14.6%
12,O=C(c1cccc(NS(=O)(=O)c2ccc(F)c(F)c2)c1)N1CCN(Cc2ccccc2)CC1,inactive: 13.8%
13,COc1ccc(COCC(O)CN2CCC(C(N)=O)CC2)cc1OC (configuration not stated),inactive: 7.13%
14,COc1ccc(NC(=O)CSc2ccc3ccccc3c2)cc1S(=O)(=O)N1CCCCC1,inactive: 9.27%
15,CCN(CC)CCNC(=O)c1ccc(NC(=O)c2ccc(F)cc2F)cc1,inactive: 2.8%
16,Cn1c(Nc2ccc(Cl)cc2F)nc2cc(-c3ccccc3)sc2c1=O,inactive: 7.02%
17,CCN(CC)S(=O)(=O)c1ccc(C(=O)OCC(=O)Nc2sc3c(c2C#N)CCCCC3)cc1,inactive: 13.7%
18,O=C(O)c1ccc(N2CC3CC(C2)c2cccc(=O)n2C3)c(NC(=S)Nc2ccc(Cl)cc2Cl)c1 (configuration not stated),inactive: 1.34%
19,O=C(COC(=O)c1ccc(F)c(S(=O)(=O)N2CCOCC2)c1)NCc1ccccc1,inactive: -3.19%
20,COc1ccc(/C=N/NC(=O)C(O)(c2ccccc2)c2ccccc2)cc1OC,inactive: -20.4%
21,Cc1ccc(C(=O)N/C(=C\c2ccc(F)cc2)C(=O)NCCCn2ccnc2)cc1,inactive: -14%
22,CC(C)(C)c1ccc2c(c1)C(=O)c1ccccc1C2=O,inactive: 6.17%

row,Structure (SMILES),growth rescue (activation)
1,CCOc1ccc(NC(=O)CN2CCN(CC(=O)Nc3ccc(OC)cc3OC)CC2)cc1,inactive: 4.89%
2,COc1ccc(C(=O)Nc2nc3ccccc3s2)cc1OC,inactive: 28.9%
3,COc1ccc(Br)cc1S(=O)(=O)Nc1ncccc1C,inactive: -7.65%
4,Cc1cc(C(=O)Nc2ccc(CC(=O)O)cc2)c(C)o1,inactive: -12.2%
5,O=C(CC1SC(=Nc2ccc(O)cc2)NC1=O)Nc1ccccc1 (configuration not stated),inactive: -10%
6,CCOCC(O)CNC(=O)c1ccc(OC2CCN(C(=O)c3cccnc3)CC2)cc1 (configuration not stated),inactive: 9.83%
7,COC(=O)C1=C(C)NC(=O)/C1=C\c1cc(C)n(-c2cccc(C)c2)c1C,inactive: 22.3%
8,CCn1c(=O)c(=O)[nH]c2cc(C(=O)N(C)Cc3ccc(OC)c(F)c3)ccc21,inactive: -4.99%
9,CCc1nc(N[C@H](C(=O)O)C(C)C)c2oc3ccccc3c2n1,inactive: -20.1%
10,Cc1cccc(N(C(=O)Cn2nnc(-c3ccccc3F)n2)C(C(=O)NC(C)(C)C)c2ccncc2)c1 (configuration not stated),inactive: -0.711%
11,O=C(O)CCCn1cc(NC(=O)COc2ccccc2F)cn1,inactive: 5.55%
12,C/C(=N\NC(=O)c1nnn(-c2nonc2N)c1CN(C)c1ccccc1)c1ccccc1O,inactive: 2.1%
13,O=[N+]([O-])c1ccc(S(=O)(=O)CC(CN2CCOCC2)N2CCOCC2)cc1 (configuration not stated),inactive: 7.92%
14,CC(=O)Oc1ccc(/C=C(\NC(=O)c2ccco2)C(=O)Nc2ccc(C(C)=O)cc2)cc1,inactive: -1.49%
15,O=C(Cc1cccs1)Nc1ccc(N2CCOCC2)cc1,inactive: 23.2%
16,O=C(CSCc1ccccc1)Nc1ccc(S(=O)(=O)Nc2ncccn2)cc1,inactive: -8.78%
17,CCOc1cc(/C=C/C(=O)OCC(=O)NCC2CCCO2)cc(Cl)c1OC (configuration not stated),inactive: -9.38%
18,O=S(=O)(c1ccc(Br)cc1)N1CCC(c2nc3ccccc3[nH]2)CC1,inactive: 3.97%
19,CN(CC(=O)Nc1ccc(Cl)c(S(=O)(=O)N(C)C)c1)Cc1ccccc1,inactive: -3.43%
